Source: paper PMC10668032
This is one part of the list. At the low end of the ranking the order means little.

Target: SIX1 homeodomain (reference allele) (UniProt Q15475)
Test: universal protein binding microarray
Conditions: Universal all-10-mer PBM (8x60K, AMADID 030236), 300 nM GST-tagged protein, Alexa Fluor 488 anti-GST; buffer, salt, pH and temperature not stated; high values mean tight binding; most listed sequences are background and not binding sites; double strand, one strand shown

Sequence | binding signal
GACCTAGA | -0.119 E-score
GCCATGAA | -0.178 E-score
ACGCATGC | -0.0871 E-score
CCTTGGCG | -0.0796 E-score
CCCACACC | 0.078 E-score
TCCTGTAA | -0.126 E-score
CGTCGGTC | -0.17 E-score
GATTTTCC | -0.106 E-score
GTACTTAA | -0.197 E-score
AATAAAAT | -0.171 E-score
CGAACCCA | 0.148 E-score
CCGAGGCA | -0.171 E-score
CGAAGACC | -0.0669 E-score
CTCACGCA | 0.0103 E-score
AAGGGCTA | -0.0168 E-score
CGAAACCC | 0.173 E-score
CGCCTGGA | 0.0146 E-score
AGCACATA | 0.0159 E-score
ACTGTCTA | 0.0271 E-score
CGCGGAAC | -0.193 E-score
ATTGGTAG | -0.0183 E-score
CCCTATTA | 0.0844 E-score
ACGATACC | 0.477 E-score
ACGCAGAC | -0.041 E-score
ATGTAGGG | 0.0453 E-score

Sequence | binding signal
CACCGCAG | 0.0662 E-score
AGAAAGAA | -0.005 E-score
TCAATAGA | -0.144 E-score
ATTAAGAC | -0.0199 E-score
CCAAAGCA | -0.138 E-score
GCCCGAAA | -0.208 E-score
AAGCCATT | -0.242 E-score
TCACCTAA | -0.0448 E-score
AATCGCCT | -0.03 E-score
ACATTGCT | -0.0283 E-score
ATGCCCTC | -0.000855 E-score
GGCGTGGA | -0.0236 E-score
AAATGGAC | -0.0559 E-score
GTTTTTAA | -0.042 E-score
ACGAAGGG | -0.0914 E-score
AGCATGTG | -0.0944 E-score
AGCAATTG | -0.0871 E-score
GCACCCAA | 0.0452 E-score
ATGTCACC | -0.00357 E-score
GAGCCTCA | -0.241 E-score
GTTGCTCA | -0.0503 E-score
CATTGCGA | 0.103 E-score
TACCTCCA | 0.0612 E-score
GTAGCTCA | -0.0163 E-score
ACTTGCTC | -0.196 E-score

Sequence | binding signal
CATCTCTA | -0.0365 E-score
TCAACCCA | -0.0587 E-score
CCCGACAC | 0.19 E-score
GCGAGGTA | -0.0286 E-score
AACTTAGC | -0.128 E-score
CGCGGTGA | 0.121 E-score
CCCGGTTC | 0.111 E-score
CCATTTAC | 0.0277 E-score
GTTCGTCA | -0.234 E-score
ACAATCCC | 0.283 E-score
CAGCCATC | -0.179 E-score
AGAACAAC | -0.266 E-score
ACTTAGCC | -0.148 E-score
AGGTTAAC | -0.16 E-score
GTGACTGA | -0.0785 E-score
TGAGCTCA | 0.0704 E-score
CTGGATAA | 0.0999 E-score
AAGGCCCT | -0.233 E-score
ATGACTCA | -0.191 E-score
CAAGCCGA | 0.0925 E-score
ACGCACAC | -0.078 E-score
AGCTGCGG | 0.0368 E-score
CACTTAAA | -0.158 E-score
GAATTTAA | -0.183 E-score
ATGAGAAA | -0.303 E-score

Sequence | binding signal
ATGCGTGG | -0.167 E-score
AATAGGCA | -0.042 E-score
AGCGATCA | 0.206 E-score
GTTGGTCA | 0.00924 E-score
ACAATATG | 0.239 E-score
CAATGGTA | 0.0387 E-score
AACCCAAA | -0.117 E-score
CTGCAATC | -0.0479 E-score
CACACCGG | 0.224 E-score
AGATATGC | 0.353 E-score
CGTAGAAG | -0.015 E-score
AACCCGCG | 0.0406 E-score
CATCCGAC | 0.209 E-score
AACCAGCG | -0.101 E-score
GGTATTAA | 0.366 E-score
GGACTACA | -0.228 E-score
CAGGTGGC | -0.125 E-score
ACGTTCTA | -0.0736 E-score
GCACATGC | -0.227 E-score
CCTCCCGC | -0.0902 E-score
CCTTCGGC | -0.144 E-score
ACGTGTCT | 0.0274 E-score
GTAGGACA | -0.0305 E-score
ACATCTTG | -0.0455 E-score
ACACGTAG | 0.00289 E-score

Sequence | binding signal
GAAAGCAC | -0.139 E-score
AAATACCT | 0.173 E-score
CCATTGAA | -0.207 E-score
GGCCCGAC | -0.122 E-score
GACCGTAA | -0.161 E-score
CCCGTCGG | -0.00119 E-score
TCGCCTAA | 0.0245 E-score
ATCTGACA | 0.213 E-score
ATTCCCCG | 0.0197 E-score
AAGACATA | 0.0292 E-score
CGGAGCAA | -0.265 E-score
GGAGTAAC | -0.207 E-score
AGTTCCTA | -0.113 E-score
GGTAAGAA | -0.119 E-score
CGAACATA | 0.0495 E-score
AGTCCTTA | -0.122 E-score
GGCTCCCA | -0.265 E-score
AACGGAAG | -0.13 E-score
GCTGAAGC | -0.208 E-score
AGAAAAGG | -0.169 E-score
ATGCTTCA | -0.108 E-score
ACTCATAC | 0.0727 E-score
GGTGGACA | -0.141 E-score
TGCCCAAA | -0.072 E-score
ACTGCTGG | -0.234 E-score

Sequence | binding signal
ATAGTCAT | 0.0914 E-score
CACCTAGG | 0.0607 E-score
GCGTACAC | 0.0476 E-score
GCTTACCC | -0.0147 E-score
AATGAGCC | 0.158 E-score
CCTCTACA | -0.0413 E-score
CGTTTAGA | -0.0855 E-score
CACGAGTA | 0.144 E-score
ACTATACT | 0.211 E-score
GTGATGGA | 0.0692 E-score
AACTACAC | 0.169 E-score
GAATTCTA | -0.11 E-score
ACGTCTAA | 0.024 E-score
CTGAGCTC | -0.0902 E-score
CACCTGGG | 0.155 E-score
GCACCAAC | -0.154 E-score
CGAGTACG | -0.071 E-score
ATCAAAAT | 0.0502 E-score
CCCCTTGA | 0.187 E-score
AAGCGATC | 0.239 E-score
CTACGTTA | -0.124 E-score
CCAAGACG | -0.0177 E-score
ACAACAGA | -0.255 E-score
AAGATTCC | -0.0643 E-score
ATGCAAAC | -0.057 E-score

Sequence | binding signal
GCCTTACA | -0.11 E-score
ATAGTACC | 0.129 E-score
GAGCTAAC | -0.132 E-score
CTTTGCGA | -0.0156 E-score
AAAGGATC | 0.279 E-score
GATGCACC | 0.0091 E-score
AAACAAGT | -0.228 E-score
AGCTGCTA | -0.115 E-score
CGCCTAAC | -0.0471 E-score
AGATCCGG | 0.358 E-score
ACATCAGC | -0.106 E-score
AAAAAATC | -0.168 E-score
CAGATGAG | 0.203 E-score
AGGAAACA | -0.15 E-score
ACTGGAGG | -0.0329 E-score
GCGACGTA | 0.0775 E-score
ATAAAAGG | -0.0649 E-score
GAGGCAAC | -0.07 E-score
CGATCGCG | 0.249 E-score
CGCCGCGC | -0.126 E-score
CGGAGAGC | 0.0276 E-score
ATCGCAGG | 0.181 E-score
CAAAAGTC | -0.243 E-score
TCATCCCA | 0.0923 E-score
CTACTAGA | 0.109 E-score

Sequence | binding signal
ACCAGGCA | 0.0954 E-score
ACTGTTTA | -0.124 E-score
CGACCTCG | -0.0668 E-score
CCATGAAG | 0.0749 E-score
ACACGAAG | 0.0155 E-score
CGGGCAGC | 0.02 E-score
CTACATTC | -0.158 E-score
ACCCTGTC | -0.0544 E-score
CTAATTTC | -0.172 E-score
CTAAACGC | -0.175 E-score
ACCCGGTG | 0.26 E-score
ACTCGGTC | -0.198 E-score
AACGGGGA | 0.0258 E-score
ACCAGGAC | -0.104 E-score
ACAACAGG | -0.143 E-score
AACTTTTC | -0.267 E-score
GACATGAA | -0.213 E-score
CGTGCAGA | -0.0652 E-score
ACAAAGAC | -0.205 E-score
AACTTATG | -0.295 E-score
CCACAAAG | -0.0519 E-score
CACGTGGA | 0.116 E-score
CGAGATGA | 0.187 E-score
AAACGCTT | -0.28 E-score
AGGACCAC | -0.0631 E-score

Sequence | binding signal
CAGGTCCC | -0.238 E-score
AGCCACAG | -0.177 E-score
GACACTTA | 0.0918 E-score
CGCGCACA | -0.00883 E-score
GCCGTGCA | -0.298 E-score
CTTTGTCA | -0.139 E-score
GCCGTAGC | -0.0538 E-score
ATCGCCGG | 0.253 E-score
AGCTGTAT | 0.186 E-score
GTCGTTTA | -0.127 E-score
CGTGAAGA | -0.0754 E-score
ACTATTTG | -0.216 E-score
ACTAGCGC | -0.0433 E-score
TGACGTCA | -0.117 E-score
CCGCAACA | -0.0989 E-score
CATGGGGC | -0.0135 E-score
CCAATCCC | 0.153 E-score
TATCTCCA | 0.282 E-score
ACGAAGGA | -0.0331 E-score
